# The list shows a part of the results.
# B1: HPL (Tachypleus tridentatus) (protein)
# chain: MEDDCTCVTDRSLEGKLMKHPSTPAVYQILDGCRRLVPNPPTYNNIYKNWECIQSNILEKLLCKCDSLSNGAELIKGSGDTVYLLSNGVKRPIADPETFNGFCFDWNKIKTYSDIVINSLSTGPIIIIKHHHHHH
# Tests used:
# Assay in all cases: glycan array binding signal (z-score within array); higher = stronger binding
# Settings in all cases: glycan notation: IUPAC condensed, linker removed
# [1] = target: Fuc(a1-3)[Gal3S(b1-4)]GlcNAc6S
# How it was run: (§1)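 The Consortium for Functional Glycomics database supplied 3228 glycan arrays, of which those lacking an available protein sequence were dropped. The binding signal, a within-array Z-score, was averaged across arrays of the same protein sequence and across linkers. Negative scores can be read as non-binding.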
# [2] = target: Fuc(a1-3)[GalNAc(b1-4)]GlcNAc
# How it was run: as §1
# [3] = target: Fuc(a1-3)[GalNAc(b1-4)]GlcNAc6S
# How it was run: as §1
# Fuc(a1-4)GlcNAc = target: Fuc(a1-4)GlcNAc
# How it was run: as §1
# Fuc(b1-3)GlcNAc = target: Fuc(b1-3)GlcNAc
# How it was run: as §1
# Gal(a1-2)Gal = target: Gal(a1-2)Gal
# How it was run: as §1
# Gal(a1-3)Gal = target: Gal(a1-3)Gal
# How it was run: as §1
# Gal(a1-3)Gal(b1-3)GlcNAc = target: Gal(a1-3)Gal(b1-3)GlcNAc
# How it was run: as §1
# [4] = target: Gal(a1-3)Gal(b1-3)GlcNAc(b1-2)Man
# How it was run: as §1
# [5] = target: Gal(a1-3)Gal(b1-3)GlcNAc(b1-2)Man(a1-3)[Gal(a1-3)Gal(b1-3)GlcNAc(b1-2)Man(a1-6)]Man(b1-4)GlcNAc(b1-4)GlcNAc
# How it was run: as §1
# [6] = target: Gal(a1-3)Gal(b1-3)GlcNAc(b1-3)GalNAc
# How it was run: as §1
# [7] = target: Gal(a1-3)Gal(b1-3)GlcNAc(b1-6)GalNAc
# How it was run: as §1
# [8] = target: Gal(a1-3)Gal(b1-3)[Fuc(a1-4)]GlcNAc(b1-2)Man(a1-3)[Gal(a1-3)Gal(b1-3)[Fuc(a1-4)]GlcNAc(b1-2)Man(a1-6)]Man(b1-4)GlcNAc(b1-4)GlcNAc
# How it was run: as §1
# Gal(a1-3)Gal(b1-4)Glc = target: Gal(a1-3)Gal(b1-4)Glc
# How it was run: as §1
# Gal(a1-3)Gal(b1-4)GlcNAc = target: Gal(a1-3)Gal(b1-4)GlcNAc
# How it was run: as §1
# [9] = target: Gal(a1-3)Gal(b1-4)GlcNAc(b1-2)Man
# How it was run: as §1
# [10] = target: Gal(a1-3)Gal(b1-4)GlcNAc(b1-2)Man(a1-3)[Gal(a1-3)Gal(b1-4)GlcNAc(b1-2)Man(a1-6)]Man(b1-4)GlcNAc(b1-4)GlcNAc
# How it was run: as §1
# [11] = target: Gal(a1-3)Gal(b1-4)GlcNAc(b1-3)GalNAc
# How it was run: as §1
# [12] = target: Gal(a1-3)Gal(b1-4)GlcNAc(b1-6)GalNAc
# How it was run: as §1
# [13] = target: Gal(a1-3)Gal(b1-4)[Fuc(a1-3)]GlcNAc
# How it was run: as §1
# [14] = target: Gal(a1-3)Gal(b1-4)[Fuc(a1-3)]GlcNAc(b1-2)Man(a1-3)[Gal(a1-3)Gal(b1-4)[Fuc(a1-3)]GlcNAc(b1-2)Man(a1-6)]Man(b1-4)GlcNAc(b1-4)GlcNAc
# How it was run: as §1
# Gal(a1-3)GalNAc = target: Gal(a1-3)GalNAc
# How it was run: as §1
# [15] = target: Gal(a1-3)[Gal(a1-4)]Gal(b1-4)GlcNAc
# How it was run: as §1
# [16] = target: Gal(a1-4)Gal(b1-3)GlcNAc(b1-2)Man(a1-3)[Gal(a1-4)Gal(b1-3)GlcNAc(b1-2)Man(a1-6)]Man(b1-4)GlcNAc(b1-4)GlcNAc
# How it was run: as §1
# Gal(a1-4)Gal(b1-4)Glc = target: Gal(a1-4)Gal(b1-4)Glc
# How it was run: as §1
# Gal(a1-4)Gal(b1-4)GlcNAc = target: Gal(a1-4)Gal(b1-4)GlcNAc
# How it was run: as §1
# [17] = target: Gal(a1-4)Gal(b1-4)GlcNAc(b1-2)Man(a1-3)[Gal(a1-4)Gal(b1-4)GlcNAc(b1-2)Man(a1-6)]Man(b1-4)GlcNAc(b1-4)GlcNAc
# How it was run: as §1
# [18] = target: Gal(a1-4)Gal(b1-4)GlcNAc(b1-3)Gal(b1-4)Glc
# How it was run: as §1
# Gal(a1-4)GlcNAc = target: Gal(a1-4)GlcNAc
# How it was run: as §1
# Gal(a1-6)Glc = target: Gal(a1-6)Glc
# How it was run: as §1
# Gal(b1-2)Gal = target: Gal(b1-2)Gal
# How it was run: as §1
# Gal(b1-3)Gal = target: Gal(b1-3)Gal
# How it was run: as §1
# Gal(b1-3)Gal(b1-4)GlcNAc = target: Gal(b1-3)Gal(b1-4)GlcNAc
# How it was run: as §1
# Gal(b1-3)GalNAc = target: Gal(b1-3)GalNAc
# How it was run: as §1
# [19] = target: Gal(b1-3)GalNAc(a1-3)[Fuc(a1-2)]Gal(b1-4)Glc
# How it was run: as §1
# [20] = target: Gal(b1-3)GalNAc(a1-3)[Fuc(a1-2)]Gal(b1-4)GlcNAc
# How it was run: as §1
# Gal(b1-3)GalNAc(b1-3)Gal = target: Gal(b1-3)GalNAc(b1-3)Gal
# How it was run: as §1
# [21] = target: Gal(b1-3)GalNAc(b1-3)Gal(a1-4)Gal(b1-4)Glc
# How it was run: as §1
# [22] = target: Gal(b1-3)GalNAc(b1-4)Gal(b1-4)Glc
# How it was run: as §1
# [23] = target: Gal(b1-3)GalNAc(b1-4)[Neu5Ac(a2-3)]Gal(b1-4)Glc
# How it was run: as §1
# Gal(b1-3)GlcNAc = target: Gal(b1-3)GlcNAc
# How it was run: as §1
# [24] = target: Gal(b1-3)GlcNAc(a1-3)Gal(b1-4)GlcNAc
# How it was run: as §1
# [25] = target: Gal(b1-3)GlcNAc(a1-6)Gal(b1-4)GlcNAc
# How it was run: as §1
# Gal(b1-3)GlcNAc(b1-2)Man = target: Gal(b1-3)GlcNAc(b1-2)Man
# How it was run: as §1
# [26] = target: Gal(b1-3)GlcNAc(b1-2)Man(a1-3)[Gal(b1-3)GlcNAc(b1-2)Man(a1-6)]Man(b1-4)GlcNAc(b1-4)GlcNAc
# How it was run: as §1
binder,measurement,setting,value
B1,glycan array binding signal (z-score),[1],-0.166
same,glycan array binding signal (z-score),[2],0.037
same,glycan array binding signal (z-score),[3],-0.358
same,glycan array binding signal (z-score),Fuc(a1-4)GlcNAc,-0.348
same,glycan array binding signal (z-score),Fuc(b1-3)GlcNAc,-0.219
same,glycan array binding signal (z-score),Gal(a1-2)Gal,0.509
same,glycan array binding signal (z-score),Gal(a1-3)Gal,-0.159
same,glycan array binding signal (z-score),Gal(a1-3)Gal(b1-3)GlcNAc,-0.108
same,glycan array binding signal (z-score),[4],-0.349
same,glycan array binding signal (z-score),[5],3.2
same,glycan array binding signal (z-score),[6],-0.24
same,glycan array binding signal (z-score),[7],-0.354
same,glycan array binding signal (z-score),[8],2.31
same,glycan array binding signal (z-score),Gal(a1-3)Gal(b1-4)Glc,0.05
same,glycan array binding signal (z-score),Gal(a1-3)Gal(b1-4)GlcNAc,-0.338
same,glycan array binding signal (z-score),[9],-0.198
same,glycan array binding signal (z-score),[10],0.167
same,glycan array binding signal (z-score),[11],-0.364
same,glycan array binding signal (z-score),[12],-0.113
same,glycan array binding signal (z-score),[13],-0.287
same,glycan array binding signal (z-score),[14],0.1
same,glycan array binding signal (z-score),Gal(a1-3)GalNAc,-0.077
same,glycan array binding signal (z-score),[15],-0.374
same,glycan array binding signal (z-score),[16],0.276
same,glycan array binding signal (z-score),Gal(a1-4)Gal(b1-4)Glc,0.888
same,glycan array binding signal (z-score),Gal(a1-4)Gal(b1-4)GlcNAc,-0.165
same,glycan array binding signal (z-score),[17],0.039
same,glycan array binding signal (z-score),[18],-0.094
same,glycan array binding signal (z-score),Gal(a1-4)GlcNAc,-0.181
same,glycan array binding signal (z-score),Gal(a1-6)Glc,1.55
same,glycan array binding signal (z-score),Gal(b1-2)Gal,0.438
same,glycan array binding signal (z-score),Gal(b1-3)Gal,0.497
same,glycan array binding signal (z-score),Gal(b1-3)Gal(b1-4)GlcNAc,-0.282
same,glycan array binding signal (z-score),Gal(b1-3)GalNAc,-0.241
same,glycan array binding signal (z-score),[19],-0.336
same,glycan array binding signal (z-score),[20],-0.266
same,glycan array binding signal (z-score),Gal(b1-3)GalNAc(b1-3)Gal,-0.319
same,glycan array binding signal (z-score),[21],-0.097
same,glycan array binding signal (z-score),[22],-0.231
same,glycan array binding signal (z-score),[23],-0.229
same,glycan array binding signal (z-score),Gal(b1-3)GlcNAc,-0.177
same,glycan array binding signal (z-score),[24],-0.413
same,glycan array binding signal (z-score),[25],-0.382
same,glycan array binding signal (z-score),Gal(b1-3)GlcNAc(b1-2)Man,-0.174
same,glycan array binding signal (z-score),[26],0.239

# — the supplement of paper PMC8728848
